# Residue numbers refer to the chain shown, from its start. The list shows a part of the results.
# T1: UNK ZnF1-3 (human, UniProt Q9C0B0 31-174)
# T1 sequence: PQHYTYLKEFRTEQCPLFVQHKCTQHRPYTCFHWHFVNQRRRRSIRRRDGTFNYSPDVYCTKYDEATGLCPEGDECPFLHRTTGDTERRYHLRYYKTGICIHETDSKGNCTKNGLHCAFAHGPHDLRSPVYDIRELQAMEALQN
# B1: 21594510_21594630_599_3pUTR_ENSG00000124766_ENST00000244745|human|control|control (ssRNA)
# RNA: GGGAGUUCUACAGUCCGACGAUCAACUCCUCGCAGGGGCGGAGGUGGGUAAAGAGAGAAAAGUCCCCAAAAGAUUUGGGGAAGGAGUUCUCCGCCUCUCGCAGAGGAGUUAUAGUUCCCAGGCUGGAGAGUCUCUCUCUCCCUCAACAGAGGAUUGAGCAUCA
# B2: chr8:95500983:95500984:-_ENSG00000164944_ENST00000437199|hu_hu|hu_hu_hu_mus_True|8_48 (ssRNA)
# RNA: GGGAGUUCUACAGUCCGACGAUCAGAACACAUCUAUCGAGUAAAGGACCGUACAUGACGGCCUCUACCACUGCCUCCACUAACAAAACUUUCCUCUGAGCCUCCACUGCCGCUAUUUGUACUAGCCCCAGGAAGGUCCAGGCCCAACAGAGGAUUGAGCAUCA
# B3: chr5:128440902:128440903:+_ENSG00000066583_ENST00000173527|hu_mus|hu_hu_hu_mus_True|98_108 (ssRNA)
# RNA: GGGAGUUCUACAGUCCGACGAUCUUGAACCGUGCUCCCAAGACCUUUGGGGUAUUGUUCCGUUAUGAUAACUGGAAUCCCUAAGAUCCGAGCUCCUUGCAACAGUCUCUGUCCCACACUAAUGAUGUCCCCAAAGUAUUUGAUCAACAGAGGAUUGAGCAUCA
# B4: 24205895_24207654_721_CDS_ENSG00000173960_ENST00000309033|human|control|control (ssRNA)
# RNA: GGGAGUUCUACAGUCCGACGAUCCCAGAUCUGUAUAUUAGUAAUGGGUUCCAAGUUGUUCAGUGGAACAGCAGACAAAUUAUUUUUAUUUUCAACUUCAAUAUUCUUUGCUUUAGAAACAAUUUUUGGUGUGGCACUUCCUAGCAACAGAGGAUUGAGCAUCA
# B5: 186306252_186307248_4635_CDS_ENSG00000047410_ENST00000367478|human|control|control (ssRNA)
# RNA: GGGAGUUCUACAGUCCGACGAUCAUGGUCUCCAGAGGACUGAGCCGAUGUCUCCAUAACCUUAUCCUGUUGUGCUUUAAGUUCUUCAUAUUGAGUCUUGUACCUACGUCCAAUUUUCUUAACUUGAGUAAUAGUUUUGACUUUCAACAGAGGAUUGAGCAUCA
# B6: chr2:122217683:122217684:-_ENSG00000074054_ENST00000409078|hu_mus|FALSE|FALSE (ssRNA)
# RNA: GGGAGUUCUACAGUCCGACGAUCACGCAAGUGUUGAAAGAAGUUAUCGUACUCAGCAGCCCCAGCCAAGAGUAACGAUCUAAUCUUUUUUAGAGCAUUUACUCUCUGCUCCCAGUCAUGCUUGUCAUCUGACAGGAUUUCUCUCAACAGAGGAUUGAGCAUCA
# B7: chr3:100845581:100845582:-_ENSMUSG00000027864_ENSMUST00000102694|mus_mus|motif|central (ssRNA)
# RNA: GGGAGUUCUACAGUCCGACGAUCGCUUGUGUGGGGUGCAUCUGCUACUGACUCUAAACCUGGACCCCACCUGGGCGGGAGCGGCCUUCUCAAAAUCUCAUUACACGAGCAGCCCCCAAGGUGGGCUCAAAACAAGCAGAGGAACAACAGAGGAUUGAGCAUCA
# B8: chr3:55757038:55757039:-_ENSMUSG00000027799_ENSMUST00000029374|mus_hu|FALSE|FALSE (ssRNA)
# RNA: GGGAGUUCUACAGUCCGACGAUCCAUUGGAGCAACAGUUUGUACAGCUGGAAGGUUUUUGCUAGUAGCACCAUUCACAAAACUAGAAGAGGAGGAAGAGGAGGAGGACCCUGAAUCCACGGCACCUGUUGUAUUAAUCAUACUCAACAGAGGAUUGAGCAUCA
# B9: 64113564_64114547_1297_CDS_ENSG00000169764_ENST00000394417|human|control|control (ssRNA)
# RNA: GGGAGUUCUACAGUCCGACGAUCUCCAUCCAAAGUCUUUGCAUUCACAAUGAUUUCCAUGUCAAUGGCAUUUUGCUCCUGCAGUCUUUUAACUGCUGCAAGAGAAAUCCAUAGGUUGUUUGUAUUAAAUAUUUUGAACUUUGACAACAGAGGAUUGAGCAUCA
# B10: chr5:38546887:38546888:-_ENSMUSG00000029126_ENSMUST00000031009|mus_mus|FALSE|FALSE (ssRNA)
# RNA: GGGAGUUCUACAGUCCGACGAUCGACCAGCACGGAGACCUUAAACCUCUCGGUGACACCCUCGGUGAUGCUGACGGUGAACUCGGCUAUCUUGGGAGGACGUGCUUUUCCUUUUUUGCGAUCAGGUUCAUAUUCAGUCUUAGUCAACAGAGGAUUGAGCAUCA
# B11: 156047345_156047465_522_3pUTR_ENSG00000254726_ENST00000532414|human|control|control (ssRNA)
# RNA: GGGAGUUCUACAGUCCGACGAUCGAUGAUUUCCCGCCGGGCUGUGGCCACGUCCUCCCGUCGCCCUGUCACCAUGAACACUGGUUCCUCGCCCCUCACCGGUGUCUUGAUGUAGGUGUUGGUCUUGGCCCUCAAGGCCUUAAUCAACAGAGGAUUGAGCAUCA
# B12: 105898293_105898413_168_5pUTR_ENSMUSG00000049354_ENSMUST00000058438|mouse|control|control (ssRNA)
# RNA: GGGAGUUCUACAGUCCGACGAUCGCCAGAGAGGCAGCGGGCUGGGGCACAAGACAGGCGGGGACCCGGGCUUGGGUCCGCGGGUCCGAGGGGAGGCGGGGCCGGGGCGGUCAAGAACGGCCUAGCCCUCCAGCGGGUCCUCGGCAACAGAGGAUUGAGCAUCA
# B13: 147386883_147387875_1828_3pUTR_ENSMUSG00000029016_ENSMUST00000137724|mouse|control|control (ssRNA)
# RNA: GGGAGUUCUACAGUCCGACGAUCUGGGCUCCAUGAUGUCACUGGCUCUCAGCUUGUCCAUUUCCACGUCUGUCUCCCACUCCAGAAGAGGCACACCUCUCAGCCCAAUAUGGACGUCAUAAAUGCCCUUGUUGAACAAGUCUCCAACAGAGGAUUGAGCAUCA
# B14: chr2:187370260:187370261:+_ENSG00000065548_ENST00000337859|hu_mus|FALSE|FALSE (ssRNA)
# RNA: GGGAGUUCUACAGUCCGACGAUCGCUUUCCCUGCUUUGAAGUCAGCUUUCCGCCUCUCCAUAUCUUGUUCAAGUUUAUCAAUCUUUUCUUGUCUUUUCCUCUUCUUCCACGCGAGAAAAGACUCUAGAGUGAUUUUGGUAACACAACAGAGGAUUGAGCAUCA
# B15: chr8:28827827:28827828:+_ENSG00000147421_ENST00000397358|hu_hu|motif|central (ssRNA)
# RNA: GGGAGUUCUACAGUCCGACGAUCAUUCUCCCUCCCAUUUUGAUUGGUAGUGCAAGGCUGUGGGGAAGUAUCAUAACUGUUGCGGGGUGACGGGGACAUUCCCGAAUGCUGCGUCUGUGUGGAAGCUGUAGCUGUAGAGGAAGACAACAGAGGAUUGAGCAUCA
# B16: chr1:17152557:17152558:+_ENSMUSG00000025777_ENSMUST00000026879|mus_mus|FALSE|FALSE (ssRNA)
# RNA: GGGAGUUCUACAGUCCGACGAUCUUCUCAUCAAAUUAUCCACUACCAUCCAUAAGCCAUAUUUACUUGAGACAUUCAUCUAUAUAUUACUUGUAUGCAUAAAUAGGGCUGUCGAGGCCAAGGUUCCCAGGACUGAAGACAAUCCAACAGAGGAUUGAGCAUCA
# B17: chr14:103803487:103803488:+_ENSG00000100664_ENST00000558506|hu_mus|motif|central (ssRNA)
# RNA: GGGAGUUCUACAGUCCGACGAUCGAGUUUAUGAUGUGUGUCAAGCAUGCCUCGGUACCCACAGGCUUUACAAGAAUUACCGGUUGUUUGCUUCUUUGGAUUGACAUGCAGAUCUGUUUCAGGAUUCUCACACUCAGGACAGAGCAACAGAGGAUUGAGCAUCA
# B18: chr5:145543945:145543946:-_ENSG00000133706_ENST00000545646|hu_hu|hu_hu_hu_mus_True|68_108 (ssRNA)
# RNA: GGGAGUUCUACAGUCCGACGAUCCUGAAUAGCCAGUGGUGGGAAAUAAUCAAGCCAGUGCUCUGCUUCAGAAAAUUUCACUAUGUCGUCAUCAGAGAGCCCAAGGGAUUUCAUAAUGUCCCACUGGUACUUAGAAGAUCCUGCCAACAGAGGAUUGAGCAUCA
# B19: 5291987_5292107_498_CDS_ENSG00000198081_ENST00000357006|human|control|control (ssRNA)
# RNA: GGGAGUUCUACAGUCCGACGAUCAGAACUAUCAACCUCAAGCUUCUUGAAAAGCUUUUUAAAGUAAGUGCUGCAGGCAGCAAGAACACAUCUGUGUGCUCUGAAUUUCACAUCCUCAACCACAAUAGCAAUAUCACAAAAUUCCAACAGAGGAUUGAGCAUCA
# B20: 78790393_78791387_1050_CDS_ENSMUSG00000033088_ENSMUST00000109689|mouse|control|control (ssRNA)
# RNA: GGGAGUUCUACAGUCCGACGAUCGUCCCAAUCCACAGAAGAGGAAUUGCUGGUAUCAUGAGGGGUAUUGCUGUCUUGGCUGGAGCUGGUGUUGGAGUUAGGGUCCUCGUCUUCGUCCUUGUUGUCGUUGUCGUCAGUGCAGCUCAACAGAGGAUUGAGCAUCA
# B21: chr14:103803487:103803488:+_ENSG00000100664_ENST00000558506|hu_mus|FALSE|FALSE (ssRNA)
# RNA: B17 RNA with G81U, G82A
# B22: chr14:89307221:89307222:+_ENSG00000165533_ENST00000346301|hu_mus|hu_hu_hu_mus_False|68_88 (ssRNA)
# RNA: GGGAGUUCUACAGUCCGACGAUCUCCUGUUUGGUUAGUGCCAGGGAGUUUCAAAGAUGUGCCAGGGCGUGGAACUUGAGCAAUAGCAUUUUCAUCCAGGAUCAUUUCAGCAAUUCCUUCCUGGUCCACAUCAAUUUCAUCUAUCAACAGAGGAUUGAGCAUCA
# Molecular target: T1, UNK ZnF1-3
# Assay: nsRBNS (natural sequence RNA bind-n-seq); RBNS binding buffer (assumed for nsRBNS): 25 mM Tris pH 7.5, 150 mM KCl, 3 mM MgCl2, 0.01% Triton X-100, 500 ug/ml BSA, 20 U/ml SUPERase-In, 4 C; UNK is unkempt and MSI1 is Musashi-1; names of the RNAs are library labels; protein concentration not given here; high values mean tight binding
row,Binder,binding signal [enrichment R]
1,B1,0.776
2,B2,0.778
3,B3,0.599
4,B4,1.45
5,B5,0.903
6,B6,0.66
7,B7,1.23
8,B8,1.59
9,B9,0.769
10,B10,0.924
11,B11,0.753
12,B12,1.28
13,B13,0.887
14,B14,0.469
15,B15,1.58
16,B16,1.69
17,B17,1.18
18,B18,1.3
19,B19,1.05
20,B20,0.864
21,B21,1.29
22,B22,0.873
